This is an account of results in the RNAGym collection of RNA variant scans (doi:10.7554/elife.90254).

B1: LINE1-full (parent)
chain: UACGUAGGUGGUUUUCCCCUGAUAGUGCUAAGGGGGCCUGGAAGUUUGGACUGGGCAGAGCUCAACACAGCGUGGCAAAGUGGCUGUGGCUAGACUGCCUCUCUGGAUUCCUCGUCACUCAGCAGGGCAUCUCUGAGAGAAAUGCC

The source gives no read counts; variants with many changes may rest on few reads.

The data set covers variants of B1. In words: self-cleavage, relative activity (ratio to wild type); higher = more cleavage; in vitro, sequencing; the parent is a self-cleaving ribozyme.
In the case of U13C A65G A94U, the self-cleavage came out at 0.12.

For U13A A31G U52A A67G, the self-cleavage worked out at 0.21.

In the case of U13C C98A A107G, the self-cleavage came out at 0.12.

In the case of U13A C128U A140G, the self-cleavage was found to be 0.39.

For U13C A43G A57G C110U U134C, the self-cleavage was 0.97.

In the case of U12G C56U A59G U73C, the self-cleavage was determined as 0.27.

With U13C A69G U115A, the self-cleavage turned out to be 0.7.

Take U12G U14C A92G A107G: the self-cleavage came to 0.

Take U13A C28U U47C: the self-cleavage came to 0.67.

Take U13C A43G A67U U96C U119C: the self-cleavage worked out at 0.29.

U12G U14C U73A A78G C120U A124G: the self-cleavage was determined as 0.52.

Regarding U12G U130C A138G, the self-cleavage stood at 1.75.

As to U13C C37U A124U, the self-cleavage was 1.1.

U13C A107G A124G: the self-cleavage was determined as 1.84.

As to U13A U46G A79G, the self-cleavage was 1.15.

For the variant U12G G32C A94G, the self-cleavage was found to be 0.

For U12G A22U U45C, the self-cleavage was 1.24.

With U13A A22G U85C, the self-cleavage came to 0.

In the case of U12C U108C A117G A124U A138C, the self-cleavage came to 0.

For U13C A31G U85C U134A U143A, the self-cleavage was found to be 0.

For the variant U13A U39C C101U U115C, the self-cleavage was determined as 0.63.

As to U13C A50G A69C, the self-cleavage amounted to 0.

As for U13C C19A C37G U62C U108C, the self-cleavage came out at 0.

On to U13C A30G G36A U87C U96C, for which the self-cleavage came out at 0.

For the variant U12G U47A A136G, the self-cleavage worked out at 1.3.

U13C A42G U45A A67G A124G: the self-cleavage came out at 0.

On to U12G A77G A107G C110A U132A, for which the self-cleavage came to 0.29.

For U13C A42G U52C G86A, the self-cleavage is 0.19.

Turning to U12C U109C U134C A142G, the self-cleavage worked out at 2.57.

Turning to U12G A30G A31G U102C, the self-cleavage was 2.3.

Consider U12C U108C A141G, for which the self-cleavage turned out to be 1.3.

U13C A43G A57G: the self-cleavage worked out at 0.48.

Turning to U13C A94G U119C G125U G127A, the self-cleavage stood at 0.36.

Take U13A G35A U108A C118U: the self-cleavage is 0.6.

Turning to U13C C28U A59G A121G, the self-cleavage came to 0.26.

U13A G48A U100C A138G U143C: the self-cleavage worked out at 1.76.

As to U13A A79G A107G A136G, the self-cleavage was determined as 1.23.

As for U13A U46C A129U, the self-cleavage was 1.87.

Consider U13C A50G A59U A65G U100C U143A, for which the self-cleavage came out at 0.

In the case of U12G A43G U112C, the self-cleavage was found to be 1.75.

Turning to U13C A30G A77U A107G, the self-cleavage was 1.39.

On to U12G A57U A78G A124G A138G, for which the self-cleavage was found to be 0.14.

Turning to U13C C38A C71U, the self-cleavage came out at 1.

Regarding U13A G33U C84U C90U C110U U112C A136G A142G, the self-cleavage is 0.01.

On to U13C A42G U132C, for which the self-cleavage turned out to be 0.66.

For the variant U13C A69U A79U U85A U132C, the self-cleavage worked out at 1.

On to U13C A22G A59U U112C, for which the self-cleavage was 0.46.

Consider U13C A31U G80A A140U, for which the self-cleavage turned out to be 0.93.

As for U13A A78G A124G, the self-cleavage turned out to be 0.58.

Consider U12G U14C A79C U100C, for which the self-cleavage worked out at 2.63.

As for U12C U132C A141G, the self-cleavage came out at 2.93.

With U12G U15C U85C A117G, the self-cleavage is 1.84.

Take U13A A22G U46C A50G A136G: the self-cleavage was 2.04.

In the case of U13C A50G U112A A136G, the self-cleavage worked out at 2.42.

As to U13C A43U A129U, the self-cleavage was 1.25.

Turning to U13A U26C G54A, the self-cleavage was 0.37.

With U13C C28U A42U U73C, the self-cleavage came to 0.51.

For U12G A30G U85C G93U U115C A129G A138G, the self-cleavage was found to be 0.

Take U13A A22G A67G: the self-cleavage worked out at 0.68.

Regarding U13C A59G A78U, the self-cleavage is 0.04.

Take U12G G32U A79U A92G: the self-cleavage was 0.38.

Regarding U13A G89A A136U A142G, the self-cleavage worked out at 0.

For U13A A64U U132C, the self-cleavage turned out to be 0.3.

As to U13C A69G G106A, the self-cleavage came out at 0.44.

As to U13C A42G U115C G135U, the self-cleavage is 1.64.

Consider U13A U26C U47C G72A, for which the self-cleavage amounted to 1.02.

As to U13A A78G A79G U115A, the self-cleavage was 0.78.

Regarding U13A U81C U87C A138G, the self-cleavage came to 0.13.

U13C A94G U115C: the self-cleavage was determined as 0.

As to U13A A22G G41A A77G, the self-cleavage is 1.45.

U12G U13A A65U A107G A136G: the self-cleavage stood at 0.42.

On to U12G G80U G86A G125U, for which the self-cleavage amounted to 0.12.

For the variant U13C A31G G41A A65U A67G U87C, the self-cleavage was 0.74.

U13C A50U U52C: the self-cleavage stood at 0.54.

In the case of U13A U119A A124U, the self-cleavage is 0.97.

U13C A121U U132C: the self-cleavage was found to be 1.28.

On to U13A C28A A94G U104C U132A, for which the self-cleavage amounted to 0.24.

With U13A U112C C113U, the self-cleavage is 0.48.

For the variant U13C A42U G54A, the self-cleavage turned out to be 0.22.

Consider U12C U104A A136G, for which the self-cleavage was 0.99.

In the case of U12G C103U A121U, the self-cleavage stood at 1.68.

For U13C A43U U115A, the self-cleavage was determined as 1.41.

With U13C A57G U81A U132C, the self-cleavage turned out to be 1.19.
